# Laboratory results reported in the supplement of paper PMC7125110.
# ± gives the standard error. This sample is rich in variants without activity.
# B1: glmS ribozyme (parent)
# chain: AUAAAAGCGCCAGAACUACAGAAAUGUAGUUGACGAGGAGGAGGUUUAUCGAAUUUUCGGCGGAUGCCUCCAAA
# Variants of: B1
# Assay: self-cleavage kobs at 160 uM GlcN6P; higher = faster cleavage; RNA array
# Conditions: with glucosamine-6-phosphate
# Outline: (§1)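 A hybridised Cy3 probe tracked barcoded ribozyme variants, transcribed in situ by E. coli RNA polymerase on sequenced MiSeq chips, at 37 °C. The variants received 40 μM to 10 mM glucosamine-6-phosphate in HEPES/KCl/Mg(OAc)2 buffer. kobs came from decay fits and kcat and KM from weighted Michaelis–Menten fits.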
row,Variant,self-cleavage kobs at 160 uM GlcN6P
1,AUAAAAGCGCCAGAACUACAGAAAUGUAGUUGACGAGGACGAGGUUUAUCGAAUUUUCGGCCGAUGCCUCCAAA,< 1e-05 s⁻¹
2,AUAAAAGCGCCAGAACUACAGAAAUGUAGUUGACGAGGACGAGGUUUAUCGAAUCUUCGGCGGAUGCCACCAAA,< 1e-05 s⁻¹
3,AUAAAAGCGCCAGAACUACAGAAAUGUAGUUGACGAGGAGAAGAUUUAUCGAAUUUUCGGAGGAUGCAUCCAAA,< 1e-05 s⁻¹
4,AUAAAAGCGCCAGAACUACAGAAAUGUAGUUGACGAGGAGUAGGUUUAUCGAAUUUUCGCCGGAUGCCUCGAAA,< 1e-05 s⁻¹
5,AUAAAAGCGCCAGAACUACAGAAAUGUAGUUGACGAGGAGGCGGUUUAUCGUAUUUUCGGCGGAUGCCUCCAAA,< 1e-05 s⁻¹
6,AUAAAAGCGCCAGAACUACAGAAAUGUAGUUGACGAGGAGGACGUUUAUGGAAUUUUCGGCGGAUGUCUCCAAA,< 1e-05 s⁻¹
7,AUAAAAGCGCCAGAACUACAGAAAUGUAGUUGACGAGGAGGAGUUUUAUCGAGUUUGCGGCGGAUGCCUCCAAA,< 1e-05 s⁻¹
8,AUAAAAGCGCCAGAACUACAGAAAUGUAGUUGACGAGGAGGAGGAUUCUCGAAUUUUCGGCGGAUGCCUCAAAA,< 1e-05 s⁻¹
9,AUAAAAGCGCCAGAACUACAGAAAUGUAGUUGACGAGGAGGAGGAUUAUAGAGUUUUCGGCGGAUGCCUCCAAA,< 1e-05 s⁻¹
10,AUAAAAGCGCCAGAACUACAGAAAUGUAGUUGACGAGGAGGAGGCUUUUCGAAUUUUCGGCGGAUGCCUCCAAA,< 1e-05 s⁻¹
11,AUAAAAGCGCCAGAACUACAGAAAUGUAGUUGACGAGGAGGAGGUAUAUCGAAUUUUCAGCGGAUGCCUCCAAA,< 1e-05 s⁻¹
12,AUAAAAGCGCCAGAACUACAGAAAUGUAGUUGACGAGGAGGAGGUGUAUCGAAUUUUCGGCGGACGCCUCCAAA,< 1e-05 s⁻¹
13,AUAAAAGCGCCAGAACUACAGAAAUGUAGUUGACGAGGAGGAGGUUCAUCGAAUUUUCGUCGGAUGCCUCUAAA,< 1e-05 s⁻¹
14,AUAAAAGCGCCAGAACUACAGAAAUGUAGUUGACGAGGAGGAGGUUUAGCGAAUUUUCGGCGGAUGCUUCCAAA,5.03e-05 ± 2.2e-05 s⁻¹
15,AUAAAAGCGCCAGAACUACAGAAAUGUAGUUGACGAGGAGGAGGUUUAUAGAAUCUUCGGCGGAUGCCUCGAAA,< 1e-05 s⁻¹
16,AUAAAAGCGCCAGAACUACAGAAAUGUAGUUGACGAGGAGGAGGUUUAUGGAAUUUUCGGCGGCUGCCUCCAAA,7.93e-05 ± 2.1e-05 s⁻¹
17,AUAAAAGCGCCAGAACUACAGAAAUGUAGUUGACGAGGAGGAGGUUUAUCUAAUUUUUGGCGGAUGCCUCCAAA,< 1e-05 s⁻¹
18,AUAAAAGCGCCAGAACUACAGAAAUGUAGUUGACGAGGAGGAGGUUUAUCGUAUUUUCGGCGGAUCCCUCCAAA,< 1e-05 s⁻¹
19,AUAAAAGCGCCAGAACUACAGAAAUGUAGUUGACGAGGAGGAGGUUUAUCGAUUUUGGGCCGGAUACCUCCAAA,< 1e-05 s⁻¹
20,AUAAAAGCGCCAGAACUACAGAAAUGUAGUUGACGAGGAGGAGGUUUAUCGAAUGUUCGCCGGAUGCCUCCAAA,< 1e-05 s⁻¹
21,AUAAAAGCGCCAGAACUACAGAAAUGUAGUUGACGAGGAGGAGGUUUAUCGAAUUAUCGGCAGAUGCCUCCAAA,< 1e-05 s⁻¹
22,AUAAAAGCGCCAGAACUACAGAAAUGUAGUUGACGAGGAGGAGGUUUAUCGAAUUUUCCGCGGAUGCCUCGAAA,< 1e-05 s⁻¹
23,AUAAAAGCGCCAGAACUACAGAAAUGUAGUUGACGAGGAGGAGGUUUAUCGAAUUUUCGGCGCAUGUCUCCAAA,< 1e-05 s⁻¹

# Variants of: B1
# Assay: self-cleavage kobs at 2500 uM GlcN6P; higher = faster cleavage; RNA array
# Conditions: with glucosamine-6-phosphate
# Outline: as §1
row,Variant,self-cleavage kobs at 2500 uM GlcN6P
1,AUAAAAGCGCCAGAACUACAGAAAUGUAGUUGACGAGGACGAGGUUUAUCGAAUUUUCGGCCGAUGCCUCCAAA,< 1e-05 s⁻¹
2,AUAAAAGCGCCAGAACUACAGAAAUGUAGUUGACGAGGAGUAGGUUUAUCGAAUUUUCGCCGGAUGCCUCGAAA,< 1e-05 s⁻¹
3,AUAAAAGCGCCAGAACUACAGAAAUGUAGUUGACGAGGAGGAGUUUUAUCGAGUUUGCGGCGGAUGCCUCCAAA,< 1e-05 s⁻¹
4,AUAAAAGCGCCAGAACUACAGAAAUGUAGUUGACGAGGAGGAGGUAUAUCGAAUUUUCAGCGGAUGCCUCCAAA,< 1e-05 s⁻¹
5,AUAAAAGCGCCAGAACUACAGAAAUGUAGUUGACGAGGAGGAGGUUCAUCGAAUUUUCGUCGGAUGCCUCUAAA,< 1e-05 s⁻¹
6,AUAAAAGCGCCAGAACUACAGAAAUGUAGUUGACGAGGAGGAGGUUUAUGGAAUUUUCGGCGGCUGCCUCCAAA,6.53e-05 ± 1.7e-05 s⁻¹
7,AUAAAAGCGCCAGAACUACAGAAAUGUAGUUGACGAGGAGGAGGUUUAUCGAUUUUGGGCCGGAUACCUCCAAA,< 1e-05 s⁻¹
8,AUAAAAGCGCCAGAACUACAGAAAUGUAGUUGACGAGGAGGAGGUUUAUCGAAUUAUCGGCAGAUGCCUCCAAA,< 1e-05 s⁻¹
9,AUAAAAGCGCCAGAACUACAGAAAUGUAGUUGACGAGGAGGAGGUUUAUCGAAUUUUCGGCGCAUGUCUCCAAA,< 1e-05 s⁻¹

# Variants of: B1
# Assay: self-cleavage kobs at 10000 uM GlcN6P; higher = faster cleavage; RNA array
# Conditions: with glucosamine-6-phosphate
# Outline: as §1
row,Variant,self-cleavage kobs at 10000 uM GlcN6P
1,AUAAAAGCGCCAGAACUACAGAAAUGUAGUUGACGAGGACGAGGUUUAUCGAAUUUUCGGCCGAUGCCUCCAAA,< 1e-05 s⁻¹
2,AUAAAAGCGCCAGAACUACAGAAAUGUAGUUGACGAGGAGGAGGUAUAUCGAAUUUUCAGCGGAUGCCUCCAAA,< 1e-05 s⁻¹
3,AUAAAAGCGCCAGAACUACAGAAAUGUAGUUGACGAGGAGGAGGUUUAUAGAAUCUUCGGCGGAUGCCUCGAAA,< 1e-05 s⁻¹
4,AUAAAAGCGCCAGAACUACAGAAAUGUAGUUGACGAGGAGGAGGUUUAUGGAAUUUUCGGCGGCUGCCUCCAAA,2.52e-05 ± 1.2e-05 s⁻¹
5,AUAAAAGCGCCAGAACUACAGAAAUGUAGUUGACGAGGAGGAGGUUUAUCUAAUUUUUGGCGGAUGCCUCCAAA,< 1e-05 s⁻¹
